# Measurements as given in publication PMC12136788.
# The list shows a part of the results.
# T1: UNK ZnF1-3 (human, UniProt Q9C0B0 31-174)
# T1 sequence: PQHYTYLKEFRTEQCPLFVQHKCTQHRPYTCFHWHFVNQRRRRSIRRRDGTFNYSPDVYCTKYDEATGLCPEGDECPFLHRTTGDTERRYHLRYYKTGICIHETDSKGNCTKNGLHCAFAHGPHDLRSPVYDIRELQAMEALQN
# B1: chr12:105553856:105553857:+_ENSG00000136051_ENST00000332180|hu_mus|FALSE|FALSE (ssRNA)
# RNA: GGGAGUUCUACAGUCCGACGAUCAAUGAUAUAGAAAUUUCGGAGAUGUAUAUUCUUUGGCCUUCGAAAUUCUGGAGCAAAAACAUCUACAAGCAUUUUGAAAUAUUCUGUACCUUCAGCAGAGUUCCGUGUAUGAUCACUGAGCAACAGAGGAUUGAGCAUCA
# B2: chr19:24183184:24183185:-_ENSMUSG00000024812_ENSMUST00000099558|mus_hu|FALSE|FALSE (ssRNA)
# RNA: GGGAGUUCUACAGUCCGACGAUCUGUAGCUGUAAAAAGGUGUGCACACGUUUUUUUAAGCUUGUUGGCUUGAUCAAAUAACUUUCGAGAACUUUUGUUGGACGUUGGAUUUAACCUUUGUCUCAUGGUUUUGACACCUUGUCUCAACAGAGGAUUGAGCAUCA
# B3: chr8:133807003:133807004:+_ENSG00000129292_ENST00000220847|hu_hu|FALSE|FALSE (ssRNA)
# RNA: GGGAGUUCUACAGUCCGACGAUCCUUUGUUAAUUGCUUCAAUCUUGGCAGGGUAAUAGCGACAGUCUGUCCAACGAGCCAGAACUUCUUCUCCAGCUUUAAAAUCAAAGAAAUCUUCCUCAUCUUUUAGCCCUUCUUUUCUUACAACAGAGGAUUGAGCAUCA
# B4: chr9:95013113:95013114:-_ENSG00000196305_ENST00000443024|hu_hu|hu_hu_hu_mus_False|28_108 (ssRNA)
# RNA: GGGAGUUCUACAGUCCGACGAUCCUCAGUGAGAAAAGGCGUGUAAGGGGCCAUCAGUCUGCACAGAGAAAGCAGGACACUGAACAGUGUCUCCAGAGCCAUGACACAAUCCUCCAUCCCACUCUCACCCUUUAACCUCCUCCUCAACAGAGGAUUGAGCAUCA
# B5: chr17:85393198:85393199:+_ENSMUSG00000061130_ENSMUST00000080217|mus_hu|FALSE|FALSE (ssRNA)
# RNA: GGGAGUUCUACAGUCCGACGAUCAUGUGUUGAGCAGUAAUUUGCCACUCGGGAUCCAGCAUGACCAUCAUAAACUGCAAAAAAUGACCAGUCUUCCAAGCCGUGAGGAAUACCUACAACAGCUGUGUGUGCAUCUUCCAUUUCCAACAGAGGAUUGAGCAUCA
# B6: chr19:8913615:8913616:-_ENSMUSG00000071658_ENSMUST00000096259|mus_hu|mus_mus_mus_hu_False|48_108 (ssRNA)
# RNA: GGGAGUUCUACAGUCCGACGAUCAGGGGGGCACCAACUUCUGCCUGAAAUGGGUGCCCCACCCAGUAGGGAGUUGCAGCUGAAAGUAUCCGUAGCAGAAGCAGUGACUAUACGAAAGGAGGCCCCUGGGGAGGGCCAGGCCAGCAACAGAGGAUUGAGCAUCA
# B7: 225965591_225965711_113_CDS_ENSG00000143742_ENST00000366839|human|control|control (ssRNA)
# RNA: GGGAGUUCUACAGUCCGACGAUCCAUAGGGUCAGCGAGGUAAAGCUUCUCGGCAGCGCGGCUGAACUCCUCCCAGGUCUGGUACUGCGGCAUCGUGGCCUAGAGUGGAAAAGUAAAGAGAAGCAAGGCCUCAGAACCCGGCCCCAACAGAGGAUUGAGCAUCA
# B8: chr9:74900086:74900087:+_ENSMUSG00000007656_ENSMUST00000169492|mus_mus|FALSE|FALSE (ssRNA)
# RNA: GGGAGUUCUACAGUCCGACGAUCUUGUCCCAAGUGAGGAUACCUUGCCUUUAACUUUGCUUCUUCAGCUUUCUCUGGACUAGUUACUUUAUCUUCCAUUUCCUUUUGCUCCUCCGCAGACGCUGCCUCGGGGACUUCCGCGGACAACAGAGGAUUGAGCAUCA
# B9: 90161196_90161316_2667_3pUTR_ENSMUSG00000044783_ENSMUST00000054674|mouse|control|control (ssRNA)
# RNA: GGGAGUUCUACAGUCCGACGAUCGUCAGCCCAAGCUAUGCAAGACUGCCUCAAAAACCAAAUAAAACAUCUCCCCCACCCCCACAACCAGCGCUCUUAAGACUAAGCCGAGAGGUGUGAACAGCGUUCUGUCAUGACUCAACUCAACAGAGGAUUGAGCAUCA
# B10: 56504298_56504502_1345_CDS_ENSG00000151914_ENST00000244364|human|control|control (ssRNA)
# RNA: GGGAGUUCUACAGUCCGACGAUCAUAAGCAACUUCCUCCUCUUCUUUUUCAUUCAACCAAAUAAGUUCAUUAGUCGCACGACUUACAAAAUUAUGGAGUGUAUCAAGGUGCCGUUCUUGAUUCCUGGAUGUAUUCAAGAGUUUCAACAGAGGAUUGAGCAUCA
# B11: chr1:89346535:89346536:+_ENSMUSG00000048000_ENSMUST00000174671|mus_mus|FALSE|FALSE (ssRNA)
# RNA: GGGAGUUCUACAGUCCGACGAUCAAGAUGCCUCUUAAACGAGACAAAUUUUCACAUAAGGGCCCAAAACAAACUGGUCCUAGUCCUUGAAGUAAAAAUAUUUAUGGGAGGAGGGGAGAUCAGUUUUUAUAUGAAAGGAAAAUUCAACAGAGGAUUGAGCAUCA
# B12: chr11:47660561:47660562:-_ENSG00000109919_ENST00000530428|hu_mus|motif|central (ssRNA)
# RNA: GGGAGUUCUACAGUCCGACGAUCAGCAUAGCAAAAGAGGCCAGGAAGCUGACAUACUUGUCGCCCAAAAAUAUUUCGUCCGGUUGUUGGAGGAAGAGGCUCAUAUCCCACCUGGAUGAGCACUUUCACGUACAUGAGCGGCUGCAACAGAGGAUUGAGCAUCA
# B13: 9552617_9559936_1471_CDS_ENSMUSG00000048264_ENSMUST00000174552|mouse|control|control (ssRNA)
# RNA: GGGAGUUCUACAGUCCGACGAUCACUUCGUGUCCAUAGUUUGCCAUAAGUGAGGAUGUACAGGGGCUUUCCAUUUGUGUCCAUGGUGGUCAGGCAGGGGGCCUUCGGGGAGAUGGUCCCCCAUCGUUGUAGUGCAGCUUCUAACAACAGAGGAUUGAGCAUCA
# B14: chr11:52220846:52220847:+_ENSMUSG00000036275_ENSMUST00000036952|mus_hu|FALSE|FALSE (ssRNA)
# RNA: GGGAGUUCUACAGUCCGACGAUCAAAAGUAGCAUCACUAAUACUUCCAGAAGAAGCAUAAUAAAUCUAAAACAAUAAAAACUAACAGUGUAAAUAUAAGGUAAUGUUUAACUCACAUUUUGGACACCUGAUUAAACUCAGCUCCAACAGAGGAUUGAGCAUCA
# B15: chrX:71549400:71549401:+_ENSMUSG00000019087_ENSMUST00000019231|mus_hu|mus_mus_mus_hu_False|68_78 (ssRNA)
# RNA: GGGAGUUCUACAGUCCGACGAUCGCAGUAGGAAGAGGGAAGCUCUUCAGUCCAGUGGUCACAAAACAGAAACAUGAACAACACGGACACCGUCCCACCCUCAACCCCCCCACUGGCACAGGGUCACACAAUCUGGGUCAAAGACAACAGAGGAUUGAGCAUCA
# B16: chr2:232320318:232320319:-_ENSG00000115053_ENST00000322723|hu_hu|hu_hu_hu_mus_True|18_18 (ssRNA)
# RNA: GGGAGUUCUACAGUCCGACGAUCACUAUUAAAGUCUACAAAACCAAACCCUUUGGAAGAACCAGUUUCCCGAUCAGUGACUAUUCUUGCACGAACAGAGCCCUCAAAUGAUUCUUUUAAUGUCUCUUCAGUGGUAUCCUCAGACAACAGAGGAUUGAGCAUCA
# B17: chr12:111931289:111931290:-_ENSMUSG00000021270_ENSMUST00000094361|mus_hu|FALSE|FALSE (ssRNA)
# RNA: GGGAGUUCUACAGUCCGACGAUCGAUAUAAUAGAUAUGUUUCUGGUUCUCCUUCAUUCUGGUGCAGUAGUCCUUGAGAGAAACCAUCUCAUCACCAGAGGCAGAUGUGUAGUACCUUAACAGCUCUGAAAGCUUCUUCCGAUUCAACAGAGGAUUGAGCAUCA
# B18: chrX:140365796:140365797:-_ENSMUSG00000031285_ENSMUST00000033642|mus_mus|mus_mus_mus_hu_False|18_78 (ssRNA)
# RNA: GGGAGUUCUACAGUCCGACGAUCCUUCUCAUUACUCAGUGCCUGCAAGGUUCUGGUUCUGUAGAAGCUACAGUGGGCGCUGUGAGUGGGGCUAGGCAACCCAUUCAUCCGGGAGCCUCUCAUAUUUCUGGAUGUCUUAUCUCUCAACAGAGGAUUGAGCAUCA
# B19: chr1:78428562:78428563:-_ENSG00000162613_ENST00000370768|hu_hu|FALSE|FALSE (ssRNA)
# RNA: GGGAGUUCUACAGUCCGACGAUCAAUUGUAAAUAACUUCAUAUUAGGAUCUGCAUUUGGUGGAGGAUUUCUCUGAAGUUCUAUUCUUGCACCAGACUGCUGGCUUAUGCUUUUUAUGGUUUCACCUCCUUUUCCUAUUAUUAACAACAGAGGAUUGAGCAUCA
# B20: 32628072_32628902_1011_CDS_ENSG00000025800_ENST00000373625|human|control|control (ssRNA)
# RNA: GGGAGUUCUACAGUCCGACGAUCGUCAUCCCCAGUGACGAUGUUACCCACGGCUCUCAGGGCAGGAGAAGCCACUUUGUAAUCAUUGUGCAUCAGCAGCUCUACCAAUCUCCGGCAGACUCCGGAGUCUAUGACUGCCUGGAUCAACAGAGGAUUGAGCAUCA
# B21: chrX:41002637:41002638:+_ENSG00000124486_ENST00000378308|hu_mus|FALSE|FALSE (ssRNA)
# RNA: GGGAGUUCUACAGUCCGACGAUCUGCUGCCCAGAUAUUAUCAAGAUCUUGCAAGGUCAGAGCUUUUUCUUUUAUGACAAAGCGAAGAAUCUUUUCUAGUUUCUCUACAUACUGUGGUUGAUGAAGGCUAUCUCGUAAAACUAUCAACAGAGGAUUGAGCAUCA
# B22: 21856164_21856284_243_5pUTR_ENSMUSG00000003410_ENSMUST00000003501|mouse|control|control (ssRNA)
# RNA: GGGAGUUCUACAGUCCGACGAUCGAGGAGGAGAUGGAGGCGGCGGCGCCUUCGAAGGCCGGGAACUGACCCGAGCCUGGGGAUGCGCGCUUCGACGGCCAGACCCCCAGCGGCAGGUGGAUGGAGGGAGCGGGCACGCAGUGGCAACAGAGGAUUGAGCAUCA
# Target: T1, UNK ZnF1-3
# Test: nsRBNS (natural sequence RNA bind-n-seq); RBNS binding buffer (assumed for nsRBNS): 25 mM Tris pH 7.5, 150 mM KCl, 3 mM MgCl2, 0.01% Triton X-100, 500 ug/ml BSA, 20 U/ml SUPERase-In, 4 C; UNK is unkempt and MSI1 is Musashi-1; names of the RNAs are library labels; protein concentration not given here; high values mean tight binding
row,Binder,binding signal
1,B1,0.56 enrichment R
2,B2,0.72 enrichment R
3,B3,0.753 enrichment R
4,B4,1.3 enrichment R
5,B5,1.39 enrichment R
6,B6,1.08 enrichment R
7,B7,0.889 enrichment R
8,B8,0.364 enrichment R
9,B9,1.54 enrichment R
10,B10,1.01 enrichment R
11,B11,1.04 enrichment R
12,B12,1.75 enrichment R
13,B13,1.21 enrichment R
14,B14,2.34 enrichment R
15,B15,1.52 enrichment R
16,B16,0.937 enrichment R
17,B17,0.697 enrichment R
18,B18,0.609 enrichment R
19,B19,0.732 enrichment R
20,B20,0.842 enrichment R
21,B21,1.04 enrichment R
22,B22,1.26 enrichment R
